Out of some 48,000 compounds screened, about 1,200 (2.5%) were called active. Inconclusive results (about 2%) are left out.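 How the source made its calls: active means activation of at least 60% and not above a set upper limit (about 1 call in 100 departs from these limits); inconclusive means activation of 40% to 60%, or above that upper limit; inactive means activation under 40%.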 This is one part of the list.
These compounds were tested against Probable G-protein coupled receptor 32 (Homo sapiens) (UniProt O75388) (assay: qHTS for Agonists of Human Resolvin D1 Receptor DRV1). Details: CHO-K1 GPR32 beta-arrestin PathHunter luminescence, 90 min; at 76.9 µM; active compounds read high; zero percent set by DMSO-only wells.
Sequence of UniProt O75388 (O75388 whole entry, looked up): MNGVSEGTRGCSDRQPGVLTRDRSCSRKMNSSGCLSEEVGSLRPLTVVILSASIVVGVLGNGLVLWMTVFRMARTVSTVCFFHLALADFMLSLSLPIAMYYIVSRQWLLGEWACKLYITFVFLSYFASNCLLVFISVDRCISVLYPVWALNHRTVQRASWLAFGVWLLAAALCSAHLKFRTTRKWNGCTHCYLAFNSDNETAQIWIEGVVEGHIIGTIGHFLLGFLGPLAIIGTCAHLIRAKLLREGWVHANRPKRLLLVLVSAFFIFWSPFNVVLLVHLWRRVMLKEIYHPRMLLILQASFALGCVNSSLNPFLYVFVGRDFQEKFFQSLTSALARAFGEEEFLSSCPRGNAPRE
In short: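 CHO-K1 cells stably expressing ProLink-tagged GPR32 and Enzyme Activator-tagged beta-arrestin were seeded at 2,500 cells/well overnight, exposed to compounds for 90 min at 37 °C, then read by beta-Gal complementation chemiluminescence after 1 h detection reagent.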
Further: 0% is about no effect.

| Structure (SMILES) | activation |
| --- | --- |
| Cc1cccc(NS(=O)(=O)c2c(C)nc3sccn3c2=O)c1C | inactive: -10.3% |
| COc1cccc(CNCCNC(=O)c2nonc2N)c1 | inactive: 13.2% |
| C#Cc1ccc(-c2ccccc2F)cc1 | inactive: 9.71% |
| CCOC(=O)CSc1nc(-c2ccc(C)cc2C)cc(-c2ccccc2)c1C#N | inactive: -38.3% |
| CCOc1ccccc1NC(=O)N1CC(CC)Oc2ccccc21 (stereo not drawn) | inactive: -25.9% |
| Cc1ccc(C(=O)CSc2nc(-c3ccccc3)nc3c2CCCC3)cc1 | inactive: 0.73% |
| Cc1cccc(CSc2ncc(Cl)c(C(=O)Nc3sc4c(c3C(N)=O)CCCC4)n2)c1 | inactive: -23.4% |
| COc1cccc(-n2c(=O)c3c(C)c(C)sc3n(CC(=O)NCc3ccc(C)cc3)c2=O)c1 | inactive: -3.6% |
| CC(=O)N1CCc2c(sc(NC(=O)CSc3ccccc3)c2-c2nc3ccccc3s2)C1 | inactive: -25.5% |
| CC(C)(C)C(=O)Nc1cccc(-c2cn3cccnc3n2)c1 | inactive: 46.7% |
| Cc1c(C(=O)NCc2cccc(Cl)c2)sc2ncnc(N(C)C3CCCCC3)c12 | inactive: -15.3% |
| O=C(Cn1c(=O)nc(-c2ccccc2)c2ccccc21)Nc1cccc(C(F)(F)F)c1 | inactive: -13% |
| Cc1ccc(Cc2c(C)nc3nc(SCC(=O)NC4CCC(C)CC4)nn3c2C)cc1 (stereo not drawn) | inactive: -15.8% |
| COc1ccc(-c2cn(-c3ccc(C)cc3)c(S(=O)(=O)CC(=O)Nc3ccc(F)cc3)n2)cc1 | inactive: 46.6% |
| COc1ccccc1NC(=O)c1cc(=O)c2ccc(C)c(C)c2o1 | inactive: -5.49% |
| CCOC(=O)c1ccc2c(c1)N(CC(=O)N(C)c1ccccc1)C(=O)c1ccccc1S2 | inactive: -14.6% |
| CCOc1ccc(CCNC(=O)c2cc3c(=O)oc4ccc(C)cc4c3s2)cc1OCC | inactive: -2.03% |
| Cc1nn(CCC(=O)Nc2cc(F)ccc2F)c(=O)c2nn(-c3ccccc3)c(C)c12 | inactive: -5.48% |
| N#C/C(=C\c1ccc(-c2ccc(C(=O)O)cc2)o1)C(=O)Nc1ccccc1C(=O)O | inactive: -1.97% |
| COc1cc(Nc2nc(SCC(=O)c3ccc(Br)cc3)nc3ccccc23)cc(OC)c1 | inactive: -28.8% |
| O=C(CC1N=C2c3ccccc3N=C(SCc3cccc(Cl)c3)N2C1=O)NCc1ccc2c(c1)OCO2 (stereo not drawn) | inactive: -3.04% |
| CC1CCCCN1C(=O)CSc1n[nH]c(-c2ccccc2Cl)n1 (stereo not drawn) | inactive: 12.9% |

| Structure (SMILES) | activation |
| --- | --- |
| Cc1cc(C)cc(OCC(=O)Nc2c(C)ccc3nsnc23)c1 | inactive: -10.7% |
| COc1ccc(S(=O)(=O)c2cnc3ccc(Cl)cc3c2N2CCCCC2C)cc1 (stereo not drawn) | inactive: -36.9% |
| CC1CCCc2sc3nc(SCC(=O)c4ccc(Br)cc4)nc(N)c3c21 (stereo not drawn) | inactive: 17% |
| Cc1ccccc1NC(=O)CSc1nc2nccnc2c(=O)n1CCc1c[nH]c2ccccc12 | inactive: -10.5% |
| Cc1cccc(N2CCN(C(=O)Cn3nc(C)n4cccc4c3=O)CC2C)c1 (stereo not drawn) | inactive: -3.48% |
| CN(Cc1ccccc1)S(=O)(=O)c1nnc(NC(=O)c2cccc(Cl)c2)s1 | active: 67.9% |
| COc1ccc(NC(=O)CSc2nc(-c3ccco3)cc(C(F)(F)F)n2)cc1OC | inactive: 19.8% |
| CCOc1ccc(N(CC)S(=O)(=O)c2cc(Br)cc3c2N(C(C)=O)C(C)C3)cc1 (stereo not drawn) | inactive: 3.59% |
| Cc1cccc(NC(=O)CSc2nccn2Cc2ccc(F)cc2)c1C | inactive: -9.56% |
| CCCCN(C)CCCNC(=O)Cn1ncc2c3ccccc3n(Cc3ccccc3)c2c1=O | inactive: 18.7% |
| Cc1ccccc1NC(=O)c1ccc2c(c1)c(C)c(C)n2Cc1ccccc1 | inactive: -12.5% |
| COc1ccc(S(=O)(=O)N2CCCN(CC(=O)Nc3ccc(NC(C)=O)cc3)CC2)cc1 | inactive: 3.5% |
| COCc1nc2ccccc2n1CCOc1cccc(C)c1 | inactive: -0.0427% |
| O=C(CN1N=C(c2ccc(Cl)cc2)CCC1=O)NCCc1ccc(Cl)cc1 | inactive: -5.12% |
| CC(=O)c1cccc(NC(=O)c2oc3c(c2C)-c2nn(Cc4ccc(Cl)cc4)cc2CC3)c1 | inactive: -8.33% |
| CCOc1ccccc1CN1CCN(S(=O)(=O)c2ccccc2)CC1 | inactive: -29.8% |
| CCOC(=O)c1c(-c2ccccc2)oc2ccc(NS(=O)(=O)c3cc(C)c(C)cc3C)cc12 | inactive: -0.978% |
| Cc1cc(O)c2c(c1)C(=O)c1cc(O)cc(O)c1C2=O | inactive: -46.7% |
| Cc1ccc(C(=O)Nc2cc3c(cc2C)n(C)c(=O)c(=O)n3C)cc1 | inactive: 3.61% |
| COc1ccccc1NC(=O)CSC1=Nc2ccccc2C2=NC(CC(=O)NCc3ccco3)C(=O)N12 (stereo not drawn) | inactive: -4.69% |
| Cc1cccc(CNC(=O)CCn2c(=O)c3cccn3c3ccc(F)cc32)c1 | inactive: -8.85% |

From PubChem BioAssay AID1346428 (National Center for Advancing Translational Sciences (NCATS), 2018)
